# Data: publication PMC4336329 (PLoS ONE, 2015)
# The whole screen tested about 310,000 compounds, of which about 14,000 (4.5%) showed an effect of 50% or more. The effect is printed as a negative number. The list shows a part of the results.
# Target: human ether-à-go-go-related gene (hERG) potassium channel (human, UniProt Q12809)
# Assay: primary screen, population patch clamp on CHO cells stably expressing hERG
# 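Note: peak tail current of the secondary pulse compared with the same well before compound.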
# Sequence of human ether-à-go-go-related gene (hERG) potassium channel (Q12809 whole entry, looked up): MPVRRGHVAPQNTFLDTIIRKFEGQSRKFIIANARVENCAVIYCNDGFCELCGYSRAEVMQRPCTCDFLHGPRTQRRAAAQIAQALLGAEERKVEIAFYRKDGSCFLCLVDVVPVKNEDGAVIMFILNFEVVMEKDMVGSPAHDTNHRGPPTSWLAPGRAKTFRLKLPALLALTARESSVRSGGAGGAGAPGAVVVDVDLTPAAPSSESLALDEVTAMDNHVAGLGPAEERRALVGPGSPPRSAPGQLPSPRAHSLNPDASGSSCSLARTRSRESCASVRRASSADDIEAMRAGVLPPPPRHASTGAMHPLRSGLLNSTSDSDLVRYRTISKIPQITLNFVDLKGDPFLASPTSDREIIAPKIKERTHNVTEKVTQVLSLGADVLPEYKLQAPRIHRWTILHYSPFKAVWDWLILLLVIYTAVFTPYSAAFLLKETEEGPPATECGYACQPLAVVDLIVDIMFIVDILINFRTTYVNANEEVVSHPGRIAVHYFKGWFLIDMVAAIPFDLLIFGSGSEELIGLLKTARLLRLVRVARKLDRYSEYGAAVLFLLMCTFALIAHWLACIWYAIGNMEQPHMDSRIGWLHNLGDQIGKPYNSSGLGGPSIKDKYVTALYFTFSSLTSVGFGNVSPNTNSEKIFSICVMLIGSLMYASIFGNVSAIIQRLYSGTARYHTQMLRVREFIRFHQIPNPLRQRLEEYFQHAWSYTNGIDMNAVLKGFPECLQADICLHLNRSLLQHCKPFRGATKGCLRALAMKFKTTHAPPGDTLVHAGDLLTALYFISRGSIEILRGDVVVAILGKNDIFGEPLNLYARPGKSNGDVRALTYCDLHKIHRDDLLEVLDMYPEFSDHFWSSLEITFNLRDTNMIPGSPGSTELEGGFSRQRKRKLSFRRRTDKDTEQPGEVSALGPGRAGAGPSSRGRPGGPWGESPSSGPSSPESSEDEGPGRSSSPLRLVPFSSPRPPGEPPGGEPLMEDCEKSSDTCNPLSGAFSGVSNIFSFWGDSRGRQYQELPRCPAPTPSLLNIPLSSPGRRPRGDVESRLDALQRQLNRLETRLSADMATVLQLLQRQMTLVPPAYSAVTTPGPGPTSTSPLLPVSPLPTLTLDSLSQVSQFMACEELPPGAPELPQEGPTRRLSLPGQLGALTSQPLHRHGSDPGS
row,SMILES,"hERG current change (%, negative = inhibition) at 10uM"
1,COc1nccc(C(F)(F)F)c1C(=O)Nc1ccc(Cl)cc1,1.49%
2,COc1ccc2oc(=O)c(C(=O)N3CCN(C(=O)c4ccccc4)CC3)cc2c1,-1.64%
3,COc1ccc(Cl)cc1C(=O)OCC(=O)c1ccc[nH]1,12.6%
4,Cc1ccc(-c2cc(C)nc3nc(N)nn23)cc1,-0.72%
5,O=C(CCS(=O)(=O)c1ccc(F)cc1)Nc1nnc(-c2ccc(F)cc2)o1,-10.7%
6,Cc1cc(C(=O)N2CCN(C(=O)C3CCCO3)CC2)no1 (stereo not shown),5.96%
7,COc1ccc2c(c1OC)C(=O)OC2CC(=O)c1ccc(O)c(O)c1 (stereo not shown),21.8%
8,C=CCc1c(C)nc(N2CCSCC2)[nH]c1=O,14.5%
9,O=C(NNc1nc(-c2ccccc2)cs1)c1ccc(F)cc1,11.4%
10,O=C(CCN1CCN(c2ccccc2)CC1)Nc1ccccc1,-22.9%
11,O=[N+]([O-])c1ccc(CNc2ccc(F)cc2)s1,-28.5%
12,O=C1NC(=S)N(c2ccc(Br)cc2)C(=O)/C1=C/N1CCN(C(=O)c2ccco2)CC1,23%
13,CC(=O)c1ccc(NC(=O)C2CC2c2ccccc2)cc1 (stereo not shown),3.25%
14,C=CCOC(=O)CCC(=O)Nc1cc(OC)nc(OC)n1,7.4%
15,O=C(Nc1cc(Cl)cc(Cl)c1)C(NCC1CCCO1)c1ccccc1 (stereo not shown),-38.9%
16,CCCn1c(CN2CCN(C(=O)OCC)CC2)nc2cc(NC(C)=O)ccc21,12.8%
17,COc1ccc(NC(=O)COC(=O)c2ccc(S(=O)(=O)N3CCCC3)cc2)cc1OC,14.9%
18,COc1ccc(/C=C/C(=O)C2CC2)cc1COc1cccc(C)c1C,7.8%
19,NC(=O)C1CCN(C(=O)CN2C(=O)c3ccccc3S2(=O)=O)CC1,7.87%
20,Cc1csc(=O)n1CC(=O)OCC(=O)Nc1cc([N+](=O)[O-])ccc1Cl,-4.67%
21,O=[N+]([O-])c1ccc(N2CCCCC2)s1,6.32%
22,COCCCNC(=O)c1ccc(Cn2c(=O)c3ccccc3n(Cc3ccccc3C)c2=O)cc1,16.2%
23,Cc1ccccc1Nc1nnc(SCC(=O)NC(=O)NCc2ccco2)s1,5.78%
24,CCOc1ccc(N=C2NC(=O)S/C2=C\c2ccc(O)cc2)cc1,8.13%
25,CN1/C(=C\C(=O)CSc2nncn2C)C(C)(C)c2ccccc21,1.36%
